The data set relates to ATP. Description: switch fluorescence ratio, 500 uM ATP over buffer (Cy3 cluster intensity, sum of 5 cycles each) (fold (ratio)); higher = stronger signal-on switching upon ATP binding; sequences stand for … in TCGTCGGCAGCGTCAGATGTGTATAAGAGACAGTTTTTTTTTTTTTTTTTTTTTTTTT…TC. The note with it: aptamer strand: ATP DNA aptamer (quencher-CACCTGGGGGAGTATTGCGGAGGAAGG + anchor), 100 nM annealed; ATP concentration: 500 uM; one replicate. In a few lines:
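Clusters with intensities outside 100-1000 RFU were excluded. The remaining Cy3-labelled switching-strand clusters on a modified Illumina MiSeq flow-cell had been annealed to 100 nM quencher-labelled ATP aptamer and imaged in selection buffer, then after 15 min with 500 uM ATP at 22 °C, for five cycles separated by NaOH stripping and re-annealing. The fluorescence ratio, averaged per switch-domain sequence, is each cluster's summed target-cycle Cy3 intensity over its summed buffer-cycle Cy3 intensity.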

Values marked as one replicate rest on one cluster of the flow cell; about a third of the high ones do not repeat.
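Further: ATP exposure 15 min at 22 °C before imaging.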

With CGATGTCTAC, the switch fluorescence ratio amounted to 1.47.

As for CCAAGTGGGG, the switch fluorescence ratio amounted to 1.02.

ATCATATATT: the switch fluorescence ratio is 0.999.

Turning to GAGTCAATGG, the switch fluorescence ratio turned out to be 1.31.

On to CTTATAATGG, for which the switch fluorescence ratio was 1.04.

As to TTGAGGATGC, the switch fluorescence ratio came to 1.06.

On to AGAATTAAGA, for which the switch fluorescence ratio turned out to be 0.998.

On to CTAAGCCCAT, for which the switch fluorescence ratio is 1.17.

TCACTTGTCC: the switch fluorescence ratio amounted to 1.04.

In the case of AAGACTAAAC, the switch fluorescence ratio was determined as 1.03.

Regarding GCGCGCAGGT, the switch fluorescence ratio came out at 1.01.

As for TGACTAAGTC, the switch fluorescence ratio came out at 1.02.

Consider TCGTTTGTTC, for which the switch fluorescence ratio came to 1.04.

In the case of CATGTAGTCG, the switch fluorescence ratio was 0.99.

On to TAATATAATG, for which the switch fluorescence ratio is 1.01.

For GGCCACTTAT, the switch fluorescence ratio was determined as 1.02.

For the sequence TTCTTCAGAT, the switch fluorescence ratio is 1.04.

For GTCTAAGAAA, the switch fluorescence ratio was determined as 1.01.

Regarding CTGTTTAAAG, the switch fluorescence ratio amounted to 0.971.

As to ATGGTCACAT, the switch fluorescence ratio was 1.01.

With CGTTGAATCG, the switch fluorescence ratio turned out to be 1.

Consider GTGCACCGAT, for which the switch fluorescence ratio worked out at 1.06.

In the case of AGGGACTCTG, the switch fluorescence ratio was 1.08.

For the sequence ACAAGTTTAT, the switch fluorescence ratio was determined as 0.987.

TCAGACCCAA: the switch fluorescence ratio amounted to 1.09.

With TCTCGTACAA, the switch fluorescence ratio worked out at 1.13.

Take TGAGTTATCA: the switch fluorescence ratio was 0.995.

As to AGAGAGAAAT, the switch fluorescence ratio worked out at 0.994.

For the sequence TTTAGTGATT, the switch fluorescence ratio amounted to 1.01.

Regarding GACCGGACCG, the switch fluorescence ratio came to 1.

As for ACCAATCAGA, the switch fluorescence ratio was 1.02.

For TGTCTCTTGT, the switch fluorescence ratio is 0.99.

As for TTCACTGAAT, the switch fluorescence ratio worked out at 1.04.

As for AAGTTAATAG, the switch fluorescence ratio came to 1.

TGCTAGGCTT: the switch fluorescence ratio was 1.03.

Turning to AGGTCAGCGT, the switch fluorescence ratio stood at 1.02.

Regarding GCGCATTAGT, the switch fluorescence ratio was 1.27.

AGTGTAGTTA: the switch fluorescence ratio was determined as 1.01.

With CAGTCTCGAG, the switch fluorescence ratio was 0.95.

As to TAAGTAGAAC, the switch fluorescence ratio came out at 1.02.

Consider TCGGTTAGGG, for which the switch fluorescence ratio worked out at 1.07.

Take GGCCAATTGT: the switch fluorescence ratio worked out at 1.02.

With GGATCGTTCG, the switch fluorescence ratio was determined as 0.969.

Turning to GAGCGTCGTA, the switch fluorescence ratio turned out to be 1.14.

Turning to AGTGCCATCG, the switch fluorescence ratio was 1.01.

Consider CAACACGTTT, for which the switch fluorescence ratio is 0.984.

As for AGATCATTAT, the switch fluorescence ratio came out at 1.03.

Turning to AGCGAAAGGC, the switch fluorescence ratio is 1.04.

In the case of ACACTTATAG, the switch fluorescence ratio stood at 1.05.

In the case of TGCACAAGAG, the switch fluorescence ratio worked out at 0.997.

As to AGTTACCGTT, the switch fluorescence ratio came to 1.02.

For GTGACGCACG, the switch fluorescence ratio came out at 1.04.

Turning to TCTATAGCGA, the switch fluorescence ratio is 1.74.

On to ACCGCCTGGT, for which the switch fluorescence ratio is 0.993.

TCCGGTGCGA: the switch fluorescence ratio was found to be 4.92.

As for GTATTAATCC, the switch fluorescence ratio came to 1.03.

CAGGTGTGGT: the switch fluorescence ratio came out at 1.43.

For the sequence TAGCTAGTTG, the switch fluorescence ratio is 1.02.

Take GTGAAAACCC: the switch fluorescence ratio was found to be 1.04.

For GACACGAGTT, the switch fluorescence ratio stood at 1.07.

In the case of GCTCTCGGGA, the switch fluorescence ratio is 1.05.

GAGGTAACGG: the switch fluorescence ratio was 0.983.

Consider ATCGATCGA, for which the switch fluorescence ratio worked out at 0.925.

Regarding TTCCGGGGC, the switch fluorescence ratio is 1.07.

CCAGGGCAC: the switch fluorescence ratio amounted to 1.01.

For ATCGGGGCCC, the switch fluorescence ratio was determined as 0.976.

For the sequence CCTGGTGCCT, the switch fluorescence ratio worked out at 1.27.

For the sequence ACGATTAGAT, the switch fluorescence ratio stood at 1.

Turning to TCCTTTCCTG, the switch fluorescence ratio worked out at 1.1.

In the case of TGGAGGCTAC, the switch fluorescence ratio worked out at 5.54.

For CAGGGCGAAT, the switch fluorescence ratio stood at 1.02.

GTGATCATCT: the switch fluorescence ratio stood at 1.01.

In the case of TAGAAGTAAC, the switch fluorescence ratio is 0.992.

On to CGGGGTATAA, for which the switch fluorescence ratio worked out at 1.02.

Consider TAAAAGAAAG, for which the switch fluorescence ratio was found to be 0.958.

With CTAGCTTTCA, the switch fluorescence ratio was found to be 1.02.

In the case of ACTAGGCAGG, the switch fluorescence ratio came out at 1.09.

Regarding CGTTCATAAA, the switch fluorescence ratio is 0.969.

These data come from the supplement of paper PMC10126150.
